# Measured values reported in the supplement of paper PMC9135407.
# Values joined by “and” are separate entries in the source; they are usually repeats but may differ in a detail not shown here. Identical values can stand only once. Counter-ions that a name gives are not always drawn. The whole screen tested about 5,800 compounds, of which about 620 (11%) showed activity.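 How the source made its calls: active = score above a cut-off or among the top three wells of a plate; in these data no inactive exceeds 0.85.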 Only a part is listed here, and it is no random draw.
# Test system: primary human hepatic stellate cells (donor 1)
# Assay: scaled lipid accumulation score (0 = DMSO-like, 1 = nortriptyline-like); higher = stronger HSC inactivation (lipid re-accumulation), active = hit call of the paper
# Details: 48 h
# [1] = library stock concentration: 3.33 mM
# [2] = library stock concentration: 10 mM
# [3] = library stock concentration: 1 mM
# [4] = library stock concentration: 80 uM
# [5] = library stock concentration: 400 uM
# [6] = library stock concentration: 2 mM
# [7] = library stock concentration: 7.2 mM
compound,measurement,setting,value
CCOC(=O)Nc1ccc(NCc2ccc(F)cc2)nc1N [Flupirtine maleate],scaled lipid accumulation score,[1],inactive: ≤ 0
same,scaled lipid accumulation score,[2],inactive: ≤ 0 and inactive: 0.075
CC1COc2c(N3CCN(C)CC3)c(F)cc3c(=O)c(C(=O)O)cn1c23 (configuration not stated) [Ofloxacin],scaled lipid accumulation score,,inactive: ≤ 0
same,scaled lipid accumulation score,[2],inactive: ≤ 0 and inactive: ≤ -0.055
CCCCC/C=C\C/C=C\C/C=C\C/C=C\CCCCNC(=O)c1ccc(O)cc1,scaled lipid accumulation score,[3],inactive: ≤ 0
O=C(O)/C=C/c1cnc[nH]1 [4-Imidazoleacrylic acid],scaled lipid accumulation score,[2],inactive: ≤ 0
C[C@H](CCC(=O)O)[C@H]1CC[C@H]2[C@@H]3CC[C@@H]4C[C@H](O)CC[C@]4(C)[C@H]3CC[C@]12C [Lithocholic acid],scaled lipid accumulation score,,inactive: ≤ 0
same,scaled lipid accumulation score,[1],inactive: 0.016
same,scaled lipid accumulation score,[2],inactive: ≤ -0.001 and inactive: ≤ 0
COc1ccc(/C=C\c2cc(OC)c(OC)c(OC)c2)cc1O [Combrestatin A4],scaled lipid accumulation score,[3],active: 0.237
C(=C(/CC1)\CCN1C)(/c2c3cccc2)\c4c(cccc4)C=C3.Cl [Cyproheptadine hydrochloride],scaled lipid accumulation score,[2],active: 0.933
CC(=O)SCC(Cc1ccccc1)C(=O)NCC(=O)OCc1ccccc1 (configuration not stated),scaled lipid accumulation score,[2],inactive: ≤ 0
CC(=O)SCC(Cc1ccccc1)C(=O)NCC(=O)OCc1ccccc1 (configuration not stated) [Racecadotril],scaled lipid accumulation score,,inactive: ≤ 0
same,scaled lipid accumulation score,[1],inactive: ≤ 0
same,scaled lipid accumulation score,library stock concentration: 5.2 mM,inactive: ≤ 0
same,scaled lipid accumulation score,[2],inactive: 0.045
CCN(CC)Cc1cc(Nc2ccnc3cc(Cl)ccc23)ccc1O.Cl.Cl.O.O [Amodiaquin dihydrochloride dihydrate],scaled lipid accumulation score,,active: 1.22
O=C1OC(OC(=O)c2cccnc2Nc2cccc(C(F)(F)F)c2)c2ccccc21 (configuration not stated) [Talniflumate],scaled lipid accumulation score,[2],inactive: ≤ -0.001
COC(=O)C1=C(C)NC(C)=C(C(=O)OC(C)C)C1c1cccc2nonc12 (configuration not stated),scaled lipid accumulation score,library stock concentration: 9.9 mM,inactive: ≤ 0
COC(=O)C1=C(C)NC(C)=C(C(=O)OC(C)C)C1c1cccc2nonc12 (configuration not stated) [Isradipine],scaled lipid accumulation score,,inactive: 0.044
same,scaled lipid accumulation score,[1],inactive: 0.027
same,scaled lipid accumulation score,[2],inactive: 0.08 and inactive: ≤ -0.001
Cn1c(Nc2ccc(C(F)(F)F)cc2)nc2cc(Oc3ccnc(-c4ncc(C(F)(F)F)[nH]4)c3)ccc21,scaled lipid accumulation score,[4],inactive: ≤ -0.001
same,scaled lipid accumulation score,[5],inactive: ≤ -0.003
same,scaled lipid accumulation score,[6],inactive: 0.037
same,scaled lipid accumulation score,[1],inactive: 0.031
same,scaled lipid accumulation score,[2],inactive: 0.077 and inactive: 0.031
CC1(C)CCC2=C(O1)c1ccccc1C(=O)C2=O [Beta-Lapachone],scaled lipid accumulation score,[1],inactive: 0.47
same,scaled lipid accumulation score,[2],inactive: 0.534
CC1(C)CCC2=C(O1)c1ccccc1C(=O)C2=O [Beta-lapachone],scaled lipid accumulation score,library stock concentration: 20.6 mM,inactive: 0.575
CC1(C)CCC2=C(O1)c1ccccc1C(=O)C2=O [beta-Lapachone],scaled lipid accumulation score,[2],inactive: 0.618
N[C@@H](Cc1cc(-c2ccc(Cl)cc2Cl)cc(CP(=O)(O)O)c1O)C(=O)O,scaled lipid accumulation score,[2],inactive: ≤ -0.006
CC(=O)OCC[N+](C)(C)C [Acetylcholine Chloride],scaled lipid accumulation score,[1],inactive: ≤ 0
same,scaled lipid accumulation score,[2],inactive: ≤ 0
CC(=O)OCC[N+](C)(C)C [Acetylcholine],scaled lipid accumulation score,[2],inactive: ≤ 0
same,scaled lipid accumulation score,library stock concentration: 11 mM,inactive: 0.016
CC(=O)OCC[N+](C)(C)C [Miochol],scaled lipid accumulation score,[2],inactive: ≤ 0
CCC(=O)NC1CCc2cccc(OC)c2C1 (configuration not stated),scaled lipid accumulation score,[2],inactive: 0.006
COc1ccccc1OCCNCC(O)COc1cccc2[nH]c3ccccc3c12 (configuration not stated) [Carvedilol],scaled lipid accumulation score,[2],active: 0.936
CC(C)(O)C1CCC(C)(C2C(O)CC3(C)C4CC(OC5OC(CO)C(O)C(O)C5O)C5C(C)(C)C(OC6OCC(O)C(O)C6O)CCC56CC46CCC23C)O1 (configuration not stated) [Astragaloside A],scaled lipid accumulation score,[1],inactive: 0.019
same,scaled lipid accumulation score,[2],inactive: ≤ 0
OCCN1C[C@H](O)[C@@H](O)[C@H](O)[C@H]1CO [Miglitol],scaled lipid accumulation score,[1],inactive: 0.017
same,scaled lipid accumulation score,library stock concentration: 9.7 mM,inactive: ≤ 0
same,scaled lipid accumulation score,[2],inactive: ≤ 0 and inactive: 0.163
OCCN1C[C@H](O)[C@@H](O)[C@H](O)[C@H]1CO,scaled lipid accumulation score,[2],inactive: ≤ 0
S=C(NCc1ccc2c(c1)OCO2)N1CCN(c2ncnc3c2oc2ccccc23)CC1 [Amuvatinib (MP-470)],scaled lipid accumulation score,[1],inactive: 0.006
same,scaled lipid accumulation score,[2],inactive: ≤ 0
S=C(NCc1ccc2c(c1)OCO2)N1CCN(c2ncnc3c2oc2ccccc23)CC1,scaled lipid accumulation score,[4],inactive: 0.069
same,scaled lipid accumulation score,[5],inactive: ≤ -0.009
same,scaled lipid accumulation score,[6],inactive: 0.025
same,scaled lipid accumulation score,[2],inactive: 0.035
S=C(NCc1ccc2c(c1)OCO2)N1CCN(c2ncnc3c2oc2ccccc23)CC1 [Amuvatinib  (MP-470) (10 mM)],scaled lipid accumulation score,[2],inactive: 0.068
S=C(NCc1ccc2c(c1)OCO2)N1CCN(c2ncnc3c2oc2ccccc23)CC1 [Amuvatinib  (MP-470) (0.4 mM)],scaled lipid accumulation score,[5],inactive: 0.042
S=C(NCc1ccc2c(c1)OCO2)N1CCN(c2ncnc3c2oc2ccccc23)CC1 [Amuvatinib  (MP-470) (2 mM)],scaled lipid accumulation score,[6],inactive: 0.074
OCc1cc(C(O)CNCCCCCCOCCCCc2ccccc2)ccc1O (configuration not stated) [Salmeterol],scaled lipid accumulation score,[2],active: 1.08
Cn1cnc([N+](=O)[O-])c1Sc1ncnc2[nH]cnc12 [Azathioprine],scaled lipid accumulation score,,inactive: ≤ 0
same,scaled lipid accumulation score,[1],inactive: ≤ 0
same,scaled lipid accumulation score,[7],inactive: ≤ -0.001
same,scaled lipid accumulation score,[2],inactive: ≤ 0 and inactive: 0.158 and inactive: 0.022
CC(=O)Oc1cc2c(s1)CCN(C(C(=O)C1CC1)c1ccccc1F)C2 (configuration not stated) [Prasugrel],scaled lipid accumulation score,[1],inactive: ≤ 0
same,scaled lipid accumulation score,[2],inactive: ≤ 0
CC(=O)Oc1cc2c(s1)CCN(C(C(=O)C1CC1)c1ccccc1F)C2 (configuration not stated),scaled lipid accumulation score,[2],inactive: ≤ 0
CC(C)C(=O)Nc1ccc([N+](=O)[O-])c(C(F)(F)F)c1,scaled lipid accumulation score,[2],inactive: ≤ 0
CC(C)C(=O)Nc1ccc([N+](=O)[O-])c(C(F)(F)F)c1 [Flutamide],scaled lipid accumulation score,,inactive: 0.003
same,scaled lipid accumulation score,[1],inactive: 0.003
same,scaled lipid accumulation score,[7],inactive: 0.041 and inactive: ≤ 0
same,scaled lipid accumulation score,[2],inactive: ≤ 0 and inactive: ≤ -0.07
COc1c(C=O)c(O)cc2c1C(=O)c1ccccc1C2=O [Damnacanthal],scaled lipid accumulation score,library stock concentration: 17.7 mM,inactive: ≤ -0.011
CN(C)[C@@H]1C(=O)C(C(N)=O)=C(O)[C@@]2(O)C(=O)C3=C(O)c4c(O)ccc(Cl)c4[C@@H](O)[C@H]3C[C@@H]12 [Demeclocycline HCl],scaled lipid accumulation score,[1],inactive: ≤ 0
same,scaled lipid accumulation score,[2],inactive: ≤ -0.001
CN(C)[C@@H]1C(=O)C(C(N)=O)=C(O)[C@@]2(O)C(=O)C3=C(O)c4c(O)ccc(Cl)c4[C@@H](O)[C@H]3C[C@@H]12 [Demeclocycline hydrochloride],scaled lipid accumulation score,[2],inactive: ≤ -0.03
CCCCCCN(CCCCCC)C(=O)Cc1c(-c2ccc(Cl)cc2)[nH]c2ccc(Cl)cc12,scaled lipid accumulation score,[2],inactive: ≤ 0
O=C1c2cccc3c2[C@H](CCC3)CN1[C@@H]1CN2CCC1CC2,scaled lipid accumulation score,[2],inactive: 0.359
NCC[C@H](O)C(=O)N[C@@H]1C[C@H](N)[C@@H](O[C@H]2O[C@H](CN)[C@@H](O)[C@H](O)[C@H]2O)[C@H](O)[C@H]1O[C@H]1O[C@H](CO)[C@@H](O)[C@H](N)[C@H]1O [Amikacin hydrate],scaled lipid accumulation score,,inactive: 0.046
NCC[C@H](O)C(=O)N[C@@H]1C[C@H](N)[C@@H](O[C@H]2O[C@H](CN)[C@@H](O)[C@H](O)[C@H]2O)[C@H](O)[C@H]1O[C@H]1O[C@H](CO)[C@@H](O)[C@H](N)[C@H]1O [Amikacin sulfate],scaled lipid accumulation score,library stock concentration: 2.6 mM,inactive: 0.004
same,scaled lipid accumulation score,[2],inactive: 0.02
CCC(O)/C=C/C=O (configuration not stated) [4-hydroxy Hexenal],scaled lipid accumulation score,[3],inactive: ≤ 0
CC(C)CN(C[C@@H](O)[C@H](Cc1ccccc1)NC(=O)O[C@H]1CO[C@H]2OCC[C@H]21)S(=O)(=O)c1ccc(N)cc1 [Darunavir Ethanolate],scaled lipid accumulation score,[1],inactive: ≤ 0
same,scaled lipid accumulation score,[2],inactive: ≤ 0
Cc1cc2c(F)c(Oc3ncnn4cc(OC[C@@H](C)O)c(C)c34)ccc2[nH]1 [Brivanib],scaled lipid accumulation score,[4],inactive: ≤ -0.009
same,scaled lipid accumulation score,[5],inactive: ≤ -0.009
same,scaled lipid accumulation score,[6],inactive: ≤ -0.009
same,scaled lipid accumulation score,[2],inactive: ≤ -0.009
Cc1cc2c(F)c(Oc3ncnn4cc(OC[C@@H](C)O)c(C)c34)ccc2[nH]1,scaled lipid accumulation score,[1],inactive: 0.023
same,scaled lipid accumulation score,[2],inactive: ≤ 0
"CCCCCCCC/C=C\CCCCCCCC(=O)OCC(CO)OC(=O)CCCCCCC/C=C\CCCCCCCC (configuration not stated) [1,2-Dioleoyl-glycerol (18:1)]",scaled lipid accumulation score,[3],inactive: 0.004
O=C1C(SCCO)=C(SCCO)C(=O)c2ccccc21,scaled lipid accumulation score,[2],inactive: 0.156
Cc1cc2nc3c(=O)[nH]c(=O)nc-3n(CC(O)C(O)C(O)COP(=O)(O)O)c2cc1C (configuration not stated),scaled lipid accumulation score,[2],inactive: ≤ 0
COc1cc(/C=C/C(=O)CC(=O)/C=C/c2ccc(O)c(OC)c2)ccc1O [Curcumin],scaled lipid accumulation score,[3],inactive: ≤ 0
same,scaled lipid accumulation score,[1],inactive: ≤ 0
same,scaled lipid accumulation score,[2],inactive: ≤ 0
same,scaled lipid accumulation score,library stock concentration: 13.6 mM,inactive: 0.799
CN1CCC(OC(c2ccccc2)c2ccccc2)CC1 [Diphenylpyraline hydrochloride],scaled lipid accumulation score,,inactive: 0.332
same,scaled lipid accumulation score,library stock concentration: 6.3 mM,inactive: 0.256
same,scaled lipid accumulation score,[2],inactive: 0.235
FC(F)(F)c1cccc(-c2noc(-c3cc(-c4ccccc4)c(C(F)(F)F)s3)n2)c1,scaled lipid accumulation score,[3],inactive: ≤ 0
same,scaled lipid accumulation score,[2],inactive: ≤ -0.001
O=C(Oc1cccc2cccnc12)c1ccccc1 [Benzoxiquine],scaled lipid accumulation score,library stock concentration: 8 mM,inactive: ≤ 0
CCOC(=O)[C@H](CCc1ccccc1)N[C@@H](C)C(=O)N1Cc2cc(OC)c(OC)cc2C[C@H]1C(=O)O [Moexipril HCl],scaled lipid accumulation score,[1],inactive: ≤ 0
same,scaled lipid accumulation score,[2],inactive: ≤ 0
CCOC(=O)[C@H](CCc1ccccc1)N[C@@H](C)C(=O)N1Cc2cc(OC)c(OC)cc2C[C@H]1C(=O)O [Moexipril hydrochloride],scaled lipid accumulation score,[2],inactive: 0.011
CCCCC/C=C/C/C=C/CCCCCCCC(=O)O [Linoelaidic Acid],scaled lipid accumulation score,[3],inactive: 0.006
